These results are taken from a compilation of properties of binary mixtures (doi:10.1021/acs.jpcb.9b04724).

This data set is described as follows: xn = mol fraction of the nth substance listed. The note with it: 101 kPa.

Usually mass density stands for mass per unit of volume.

Some of these densities may be calculated back from excess volumes.

With `CC[n+]1ccn(C)c1.N#C[N-]C#N` + CCCC[N+](C)(CCCC)CCCC.N#C[N-]C#N, the mass density (293.15 K, x1 = 1) is 1105 kg/m3; the mass density (313.15 K, x1 = 1) is given as 1091.8 kg/m3; the mass density (333.15 K, x1 = 1) came to 1078.9 kg/m3.
For `CCCC[N+](C)(CCCC)CCCC.N#C[N-]C#N` + CC[n+]1ccn(C)c1.N#C[N-]C#N, the mass density reads like this: (293.15 K, x2 = 0) 947.5 kg/m3; (293.15 K, x2 = 0.2114) 968.1 kg/m3; (293.15 K, x2 = 0.3975) 990.1 kg/m3; (293.15 K, x2 = 0.6047) 1020.4 kg/m3; (293.15 K, x2 = 0.8003) 1056.8 kg/m3; (313.15 K, x2 = 0) 936.7 kg/m3. Further, the mass density is given as 957 kg/m3 (313.15 K, x2 = 0.2114); 978.7 kg/m3 (313.15 K, x2 = 0.3975); 1008.6 kg/m3 (313.15 K, x2 = 0.6047); 1044.4 kg/m3 (313.15 K, x2 = 0.8003); 925.9 kg/m3 (333.15 K, x2 = 0); 946 kg/m3 (333.15 K, x2 = 0.2114). In addition, the mass density stood at 997 kg/m3 (333.15 K, x2 = 0.6047); 1032.2 kg/m3 (333.15 K, x2 = 0.8003); 915.3 kg/m3 (353.15 K, x2 = 0); 985.6 kg/m3 (353.15 K, x2 = 0.6047); 1020.3 kg/m3 (353.15 K, x2 = 0.8003).
